# Measured values as given in PubChem BioAssay AID662 (National Center for Advancing Translational Sciences (NCATS), 2007).
# Where “and” joins values, the source holds several entries; their conditions need not be identical. Equal values may be shown once. Out of some 71,000 compounds screened, about 1,800 (2.5%) were called active. The inconclusive results got no clear call from the source; some entries with a clear call stand among them for comparison. Calls come from the whole dose curve; as a rule, active = well fitted activation curve with a large enough effect in the signal ratio, with a control signal flat (not every such curve was filed as active); inconclusive = small, poorly fitted or top-dose-only effect, or effect the other way, or a change in a side signal; inactive = flat fitted curve, though single readings scatter; the % refers to the signal ratio. Potencies of inconclusive entries are doubtful fits and often do not repeat.
# Test: Cell signaling CRE-BLA (Fsk stim); for activity change, negative = inhibition: % of control where 0% means no effect
# Conditions: CHO CRE-bla reporter (cAMP response element driving beta-lactamase), forskolin EC10, beta-lactamase ratio; activity change, negative = inhibition: at 38.2 µM (top of the series) unless noted
# In short: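 Reporter-gene assay: CHO cells with beta-lactamase behind cAMP responsive elements, co-treated with compound and EC10 NKH 477 for 3 hours at 37 degrees Celsius. Activity came from the 460/530 nm CCF4 emission ratio.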
# Potency is the fitted concentration of half-maximal effect; tags give direction and shape of the fitted curve.
SMILES,Potency,"activity change, negative = inhibition"
CCc1nc(N2CCN(C(=O)c3ccco3)CC2)c2oc3ccccc3c2n1,active: 3.16 µM,–
CCOc1ccc(OCc2cccc(C(=O)N3CCCC3)c2)cc1,inactive,–
CCN(CC)C(=O)Oc1ccc2c(=O)c(-c3ccc(OC)cc3)coc2c1,–,inconclusive: -4.34%
Cc1nc(NC2=NCN(CCc3ccccc3)CN2)nc2c(C)cccc12,–,inconclusive: 3.12%
CCOC(=O)C(Cc1ccccc1)C(=O)Nc1nccs1 (centres undefined),inactive,–
COc1ncc2nc(-c3cn(C)c4ccccc34)c(=O)n(Cc3ccc(F)cc3)c2n1,"inconclusive: 3.98 µM [rising, partial curve]",–
Cc1sc2nc3ccc(N4CCCC4)nn3c(=O)c2c1C,inactive,–
CC(=O)OCCN(Cc1ccccc1)Cc1ccc2c(c1)OCO2,inactive,–
COc1cccc(NC(=O)c2ccccc2-c2nc(-c3ccccc3)no2)c1,–,inconclusive: 34.9%
CCOC(=O)c1c(-c2ccc(C)o2)csc1NC(=O)CSc1nnc(C)s1,"inconclusive: 10 µM [rising, partial curve]",–
CN(Cc1cnc2nc(N)nc(N)c2n1)c1ccc(C(=O)N[C@H](CCC(=O)O)C(=O)O)cc1,–,inconclusive: 17.7% and inconclusive: 20.4%
C=CCNC(=O)c1ccc(C(=O)c2ccccc2)cc1,"inconclusive: 5.01 µM [falling, single point]",–
Cc1c(C(=O)NCCN2CCOCC2)oc2ccccc12,–,inconclusive: 27.6%
CCOC(=O)CNC(=O)c1cn(C)c(=O)c2cc(OC)c(OC)cc12,"inconclusive: 12.6 µM [rising, partial curve]",–
CCc1c2c(nc3ccc(OC)cc13)OC(CC)C2 (centres undefined),–,inconclusive: 27.9%
Nc1c(C(=O)OCC2CCCO2)c2nc3ccccc3nc2n1-c1ccc2c(c1)OCCO2 (centres undefined),"inconclusive: 12.6 µM [rising, single point]",–
O=C(NCc1ccc(Cl)cc1)C1C2C=CC3(CN(Cc4cccnc4)C(=O)C13)O2 (centres undefined),–,inconclusive: -7.25%
CC1(C)CC(=O)C(CCC(=O)c2ccccc2)C(C)(C)N1 (centres undefined),inactive,–
Fc1ccc(-c2cc3nc4c(c(N5CCOCC5)n3n2)CCCC4)cc1,"inconclusive: 2 µM [rising, partial curve]",–
Nc1cnn([C@@H]2O[C@H](CO)[C@@H](O)[C@H]2O)c(=O)n1,inactive,–
CN1CCN(c2ncncc2-c2ccccc2Cl)CC1,inactive,–

SMILES,Potency,"activity change, negative = inhibition"
Cc1nc2ccccc2n1CC(=O)NCc1ccccc1,–,inconclusive: -11%
O=C(CCN1C(=O)C2C3C=CC(C3)C2C1=O)N1CC(=O)N(CCc2ccccc2)C(=O)C1 (centres undefined),–,inconclusive: 5.9%
CN1C(=O)c2oc3ccccc3c(=O)c2C1c1ccncc1 (centres undefined),inactive,–
CC(C)=CC(=O)Nc1ccc(Br)cc1,inactive,–
O=C(OCCN(C1=NS(=O)(=O)c2ccccc21)c1ccc(Cl)cc1)c1ccco1,"inconclusive: 12.6 µM [rising, single point]",–
CC1=CC(C)(C)N(C(=O)CSc2nnc(-c3ccccc3)o2)c2ccc(C)cc21,–,inconclusive: 22.9% [at 7.6 µM]
COCCNC(=O)c1sc2nc(-c3ccccc3)cn2c1C,–,inconclusive: 20%
O=c1oc2ccccc2c(O)c1CN1CCCCC1,–,inconclusive: -9.51%
O=S(=O)(c1ccc2c(c1)OCCO2)N(Cc1ccc(F)cc1)Cc1nnc(-c2cccs2)o1,–,inconclusive: -11.1%
O=C(Nc1cccc(F)c1)C1CCN(c2nnnn2-c2ccccc2)CC1,"inconclusive: 5.01 µM [falling, single point]",–
CCC1Sc2ccccc2N(CC(=O)NCCC(C)C)C1=O (centres undefined),–,inconclusive: -21.6%
CN(C)Cc1ccc(C(C)(C)C)cc1-c1cc(C(C)(C)C)ccc1CN(C)C,–,inactive: 0.344% [at 7.6 µM]
COc1cc(NC(=O)c2ccc(Br)o2)c(C(=O)O)cc1OC,"inconclusive: 25.1 µM [rising, single point]",–
CCOC(=O)c1[nH]nc2c1C(=O)N(CC)C2=O,–,inconclusive: 7.46%
COc1ccc2c(c1)N(C[C@@H](C)CN(C)C)c1ccccc1S2,inactive,–
CCOC(=O)c1sc(NC(=O)c2cccs2)cc1C,–,inconclusive: 10.9%
CNC(=O)NC1CCCc2ccccc21 (centres undefined),inactive,–
Cc1ccc(-c2nsc3c(N4CCC(C(N)=O)CC4)ncnc23)cc1,inactive,–
COc1cc(/C=N/n2c(SC)nnc(C(C)(C)C)c2=O)ccc1O,"inconclusive: 10 µM [rising, single point]",–
CCOC(=O)Cc1c(C)c2ccc(N(CC)CC)cc2oc1=O,"inconclusive: 12.6 µM [rising, partial curve]",–
COc1ccc(S(=O)(=O)Cc2ccc(C(=O)N3CCN(c4cccc(C)c4)C(C)C3)o2)cc1 (centres undefined),–,inconclusive: -29.6%

SMILES,Potency,"activity change, negative = inhibition"
COc1cc(NC(=O)Cc2cccs2)cc(OC)c1,inactive,–
CCCCn1c(=O)n(Cc2cccc(F)c2)c(=O)c2c1ncn2Cc1ccco1,"inconclusive: 3.98 µM [falling, single point]",–
Cc1ccc2c(C(=O)CN3CCCCC3CCO)c(C)[nH]c2c1 (centres undefined),inactive,–
COc1ccccc1-n1cnc2cc(NS(=O)(=O)c3ccccc3)ccc21,–,inconclusive: 15.4%
CCCS(=O)(=O)c1nc(S(=O)(=O)c2ccc(C)cc2)c(N2CCCC2)s1,"inconclusive: 0.0398 µM [rising, partial curve, poor fit]",–
CS(=O)(=O)c1ncc(Cl)c(C(=O)Nc2ccc(N3CCOCC3)cc2)n1,"inconclusive: 3.98 µM [falling, single point]",–
COc1ccc(NS(=O)(=O)c2cc(OC)ccc2NC(=O)c2cc(C)oc2C)cc1,–,inconclusive: 19%
C=CCn1c(SCCCCCC)nc(O)cc1=O,–,inconclusive: 20%
COc1ccccc1C(=O)N(Cc1ccco1)C1CCS(=O)(=O)C1 (centres undefined),inactive,–
COc1ccc(COC(=O)C2=C(C)NC(=O)NC2c2ccc(O)c(OC)c2)cc1 (centres undefined),–,inconclusive: 43.5% [at 7.6 µM]
N[C@H](C(=O)O)c1ccc(O)c(C(=O)O)c1,inactive,–
O=C(Nc1cccc(F)c1)N1CCCC2(CCN(S(=O)(=O)c3ccccc3)CC2)C1,inactive,–
CCOC(=O)c1cc(NC(=O)c2cnccn2)cc(C(=O)OCC)c1,–,inconclusive: 5.57%
COc1ccc(C2=Nn3c(nnc3-c3ccccc3OC)SC2)cc1OC,active: 1.26 µM,–
CCOC(=O)C1CCCN(C(=O)Cn2nc(CC)n3c(cc4sccc43)c2=O)C1 (centres undefined),–,inconclusive: 19.9%
O=c1c(Cc2ccccc2O)c(O)nc2n1CCCS2,–,inconclusive: -0.609%
CCc1nnc(NC(=O)CSc2nnc(-c3ccoc3C)n2-c2ccc(C)cc2)s1,–,inconclusive: -21.8%
CC1CCN(CC(=O)NCc2ccccc2)CC1,inactive,–
CCC(C)N(C(=O)Cn1nnc2ccccc21)C(C(=O)NCc1ccco1)c1cccc(OC)c1 (centres undefined),inactive,–
O=C(NC1CCS(=O)(=O)C1)c1ccc(-c2ccc(Br)cc2)o1 (centres undefined),"inconclusive: 12.6 µM [rising, single point]",–
CCOC(=O)CN(C(=O)Cn1nnc2ccccc21)C(C(=O)NCCOC)c1ccccc1 (centres undefined),inactive,–

SMILES,Potency,"activity change, negative = inhibition"
CCn1c(C)nc2c(=O)oc3ccccc3c21,"inconclusive: 12.6 µM [rising, single point]",–
CC1CCCC(NC(=O)CC2Nc3ccccc3NC2=O)C1C (centres undefined),–,inconclusive: 27.5%
O=S(=O)(c1ccc(Oc2ncnc3scc(-c4ccccc4)c23)cc1)N1CCOCC1,"inconclusive: 3.98 µM [rising, single point]",–
CC(C)(C)c1ccccc1OCC(=O)NCCC(=O)O,"inconclusive: 3.98 µM [falling, single point]",–
C=CCc1cccc2cc(C(=O)N3CCN(C(=O)c4ccco4)CC3)c(=O)oc12,inactive,–
Cc1oc(-c2cc(Cl)ccc2Cl)cc1-c1nn2c(C)nnc2s1,–,inconclusive: 16.2%
Cn1c(=O)c(C(=O)Nc2ncccc2O)c(O)c2ccccc21,"inconclusive: 5.01 µM [falling, single point]",–
O=c1c(-c2ccc(Cl)cc2)nc2cnc(Oc3ccccc3)nc2n1C1CC1,"inconclusive: 12.6 µM [rising, partial curve]",–
CS(=O)(=O)Nc1cccc(-c2cc(Nc3ccccc3)ncn2)c1,inactive,–
CNC(=O)CC(C(=O)O)c1ccc(OCC(C)C)cc1 (centres undefined),inactive,–
CN(C)c1ncc2nc(-c3ccc(Cl)cc3)c(=O)n(C)c2n1,active: 2.51 µM,–
COc1cc2c(cc1OC)CN(C(=O)C(C)(C)C)CC2,"inconclusive: 10 µM [rising, single point]",–
CC1=C(C#N)C(c2cn(-c3ccccc3)nc2-c2cccs2)C(C#N)=C(C)N1,"inconclusive: 3.16 µM [falling, partial curve]",–
CCOC(=O)CSc1nc2ccccc2c(=O)n1C1CCCC1,"inconclusive: 20 µM [rising, single point]",–
CC(C)CCn1c(CN2CCN(C(=O)c3ccco3)CC2)nc2c1c(=O)n(C)c(=O)n2C,–,inconclusive: -1%
C=CCOC(=O)C1=C(C)N=C2SCCC(=O)N2C1c1cccs1 (centres undefined),–,inconclusive: 24%
Cn1c(C(=O)Nc2ccc3c(c2)OCCO3)cc2sccc21,–,inconclusive: -3.3%
O=c1[nH]c2cc3c(cc2cc1CN(Cc1cccs1)Cc1nnnn1Cc1ccco1)OCCO3,"inconclusive: 10 µM [rising, partial curve]",–
Cn1c(C(=O)N2CCCC2)cc2c(=O)n(C)c3ccccc3c21,inactive,–
COc1c(Cl)ccc(Cl)c1C(=O)OCC(=O)O,inactive,–
CS(=O)(=O)N1CCC2(CCCN(Cc3ccc(C#N)cc3)C2)CC1,inactive,–
